Measurements: PMC4336329 (PLoS ONE, 2015)
About 14,000 (4.5%) of roughly 310,000 compounds showed an effect of 50% or more. The effect is printed as a negative number. The list shows a part of the results.

Target: human ether-à-go-go-related gene (hERG) potassium channel (human, UniProt Q12809)
Experiment: primary screen, population patch clamp on CHO cells stably expressing hERG
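Also: peak tail current of the secondary pulse compared with the same well before compound.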

Chain of human ether-à-go-go-related gene (hERG) potassium channel (Q12809 whole entry, looked up): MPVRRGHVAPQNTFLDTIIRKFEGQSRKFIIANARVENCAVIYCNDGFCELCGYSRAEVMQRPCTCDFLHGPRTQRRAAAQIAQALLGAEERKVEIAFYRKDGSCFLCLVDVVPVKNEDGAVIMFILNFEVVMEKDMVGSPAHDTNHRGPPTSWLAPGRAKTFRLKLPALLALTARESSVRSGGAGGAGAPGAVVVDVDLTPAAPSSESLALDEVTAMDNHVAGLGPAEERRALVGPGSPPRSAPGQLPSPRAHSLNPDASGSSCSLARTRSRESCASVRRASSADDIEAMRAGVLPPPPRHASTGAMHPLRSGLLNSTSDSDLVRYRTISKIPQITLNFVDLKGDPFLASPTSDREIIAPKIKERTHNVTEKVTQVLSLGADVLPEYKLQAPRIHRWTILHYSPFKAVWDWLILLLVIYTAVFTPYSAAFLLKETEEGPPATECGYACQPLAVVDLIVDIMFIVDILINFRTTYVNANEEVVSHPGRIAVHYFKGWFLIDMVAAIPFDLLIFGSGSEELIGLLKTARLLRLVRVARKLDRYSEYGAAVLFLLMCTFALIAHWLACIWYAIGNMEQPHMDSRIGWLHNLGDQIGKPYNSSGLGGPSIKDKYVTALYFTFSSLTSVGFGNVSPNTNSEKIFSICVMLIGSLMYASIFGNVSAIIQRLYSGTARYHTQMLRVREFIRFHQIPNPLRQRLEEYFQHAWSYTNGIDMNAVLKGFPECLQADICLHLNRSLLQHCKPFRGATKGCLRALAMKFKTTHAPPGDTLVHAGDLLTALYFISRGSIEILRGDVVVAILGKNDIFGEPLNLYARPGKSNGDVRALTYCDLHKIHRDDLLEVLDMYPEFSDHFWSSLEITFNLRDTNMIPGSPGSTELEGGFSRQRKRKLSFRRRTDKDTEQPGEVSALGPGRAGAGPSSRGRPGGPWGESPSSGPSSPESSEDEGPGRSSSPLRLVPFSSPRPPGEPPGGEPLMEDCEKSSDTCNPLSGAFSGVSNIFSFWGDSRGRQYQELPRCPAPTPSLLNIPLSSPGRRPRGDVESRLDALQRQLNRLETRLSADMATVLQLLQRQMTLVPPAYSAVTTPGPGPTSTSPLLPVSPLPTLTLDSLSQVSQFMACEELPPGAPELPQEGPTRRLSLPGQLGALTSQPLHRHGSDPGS

Going from `COc1ccccc1N1CCN(/N=C/c2ccc(O)cc2O)CC1` to `Cc1cc(C(=O)OCC(=O)N2CCN(c3ccccc3)CC2)c2ccccc2n1`, the “hERG current change (%, negative = inhibition) at 10uM” value falls from 19.8% to -31.3%.

Compared with `N#Cc1c2c(c(NCc3cccnc3)n3c1nc1ccccc13)CCC2`, `Cc1cc(Nc2c(C)n(C)n(-c3ccccc3)c2=O)n2c(nc3ccccc32)c1C#N` is lower in “hERG current change (%, negative = inhibition) at 10uM” value: -39.3% for the first, -73.6% for the second.

Compared with `Cc1cccc(NC(=O)C(=O)NCC2CCCN2S(=O)(=O)c2ccccc2)c1` (centres unmarked), `Cc1cccc(N(C2C=CS(=O)(=O)C2)S(=O)(=O)c2ccccc2)c1` (centres unmarked) is higher in “hERG current change (%, negative = inhibition) at 10uM” value: -17.9% for the first, 16.5% for the second.

First: Cc1ccc(N2C(=O)c3n[nH]c(C)c3C2c2cccnc2)cc1 (centres unmarked)
Second: COc1ccc(C2NN=C(c3ccc(C)cc3)S2)cc1 (centres unmarked)
The “hERG current change (%, negative = inhibition) at 10uM” value of the first is lower: 0.515% for the first, 4.2% for the second.

Going from `O=C(COC(=O)CNC(=O)c1ccc(Cl)c([N+](=O)[O-])c1)NC(=O)c1ccccc1` to `CCN(C(=O)COC(=O)/C=C/c1cccc([N+](=O)[O-])c1)c1ccccc1`, the “hERG current change (%, negative = inhibition) at 10uM” value falls from 12.4% to 0.412%.

Going from `O=C(NCC(=O)N(Cc1cccs1)C(C(=O)NC1CCCCC1)c1ccco1)c1ccco1` (centres unmarked) to `O=C(CSc1nnc(-c2ccccc2O)o1)NC1CCCCC1`, the “hERG current change (%, negative = inhibition) at 10uM” value rises from -19.8% to -10%.

Going from `O=C(COC(=O)c1ccc(F)cc1)Nc1ccccc1N1CCOCC1` to `O=C(CCC(=O)N1CCOCC1)c1ccc(F)cc1`, the “hERG current change (%, negative = inhibition) at 10uM” value rises from -1.78% to 36.5%.

Going from `CC(O)CNCCCOc1ccc(Cl)cc1C(C)(C)C.O=C(O)C(=O)O` (centres unmarked) to `Cc1c(C)c2ccc(OC(C)C(=O)NCCCn3ccnc3)c(C)c2oc1=O` (centres unmarked), the “hERG current change (%, negative = inhibition) at 10uM” value rises from -15.9% to -6.05%.

Going from `Cc1ccsc1C(=O)C1CCCN(Cc2ccc(-n3cccn3)cc2)C1` (centres unmarked) to `CSc1ccc(CN2CCC(Cc3ccccc3)CC2)cc1`, the “hERG current change (%, negative = inhibition) at 10uM” value rises from -67.7% to -65.4%.

Going from `CC(C)OCCCN1CC(=O)N2C(c3ccccc3)c3[nH]c4ccccc4c3C[C@H]2C1=O` (some centres unmarked) to `CCN1C(=O)NC(c2ccccc2)C1=O` (centres unmarked), the “hERG current change (%, negative = inhibition) at 10uM” value rises from -33.3% to 14.7%.

First: Cc1cccn2c(CNC3CCCc4ccccc43)c(C(=O)N3CCOCC3)nc12 (centres unmarked)
Second: Nc1c(C(=O)NCCN2CCOCC2)c2nc3ccccc3nc2n1Cc1ccco1
The “hERG current change (%, negative = inhibition) at 10uM” value of the first is higher: -10.8% for the first, -68.8% for the second.

Going from `Cc1ccc(-c2nnc(CSc3nnc(C)s3)o2)cc1` to `Cc1cc(NC(=O)CSc2ccc(-c3ccc(F)cc3)nn2)no1`, the “hERG current change (%, negative = inhibition) at 10uM” value rises from -9.76% to 12.4%.

First: CCC(C(=O)NC1CCN(C)CC1)c1ccccc1 (centres unmarked)
Second: O=C(Cc1ccccc1)NCCSC1CCCCC1
The “hERG current change (%, negative = inhibition) at 10uM” value of the first is higher: 14.3% for the first, 3.35% for the second.

First: CCOc1ccc(CCNC(=O)c2nnn(CC(=O)Nc3ccc(OC)c(OC)c3)c2N)cc1OCC
Second: CCOc1ccc(/C=C2/Sc3ccc(C(=O)NCC4CCCO4)cc3N(C)C2=O)cc1OC (centres unmarked)
The “hERG current change (%, negative = inhibition) at 10uM” value of the first is higher: 24.2% for the first, -13.7% for the second.

Going from `Cc1ccccc1NC1=NC(C)(C)N=C(N)N1` to `CCN(CC)CC(=O)Nc1ccc(C)cc1C(=O)c1ccccc1`, the “hERG current change (%, negative = inhibition) at 10uM” value falls from 10.5% to -19.5%.

Going from `CCCCCCn1c(N2CCN(c3ccccc3)CC2)nc2c1c(=O)n(C)c(=O)n2C` to `O=c1c2cc(N3CCOCC3)ccc2[nH]c(=S)n1CCc1ccccc1`, the “hERG current change (%, negative = inhibition) at 10uM” value rises from -48.8% to 13.3%.

Going from `Cc1ccc(C)c(N(Cc2ccccc2F)S(C)(=O)=O)c1` to `CN(C)S(=O)(=O)c1cc(C(=O)NCCCn2ccc3ccccc32)ccc1Cl`, the “hERG current change (%, negative = inhibition) at 10uM” value falls from -8.17% to -18.7%.

Going from `O=C(O)C(=O)O.O=S(=O)(c1cccc(C(F)(F)F)c1)N(CCCN1CCOCC1)Cc1cccs1` to `O=C(N/N=C/c1sc(N2CCOCC2)nc1-c1ccccc1)c1ccccc1Cl`, the “hERG current change (%, negative = inhibition) at 10uM” value rises from -51% to 10.3%.

First: Cc1ccc2[nH]c(C(=O)N3CCN(C=O)CC3)cc2c1
Second: CC(C)c1onc(C(=O)N2CCN(Cc3ccccc3)CC2)c1[N+](=O)[O-]
The “hERG current change (%, negative = inhibition) at 10uM” value of the first is higher: -0.619% for the first, -17.9% for the second.

First: CN(N)C(=S)Nc1ccc(F)cc1
Second: CCCCOC(=O)Nc1ccc(S(=O)(=O)Nn2cnnc2)cc1
The “hERG current change (%, negative = inhibition) at 10uM” value of the first is higher: 20.8% for the first, 16.5% for the second.

Going from `Cc1ccnc(-n2c(C)cc(/C=N/NC(=O)COc3cccc4cccnc34)c2C)c1` to `O=C(COc1cccc2cccnc12)Nc1nccs1`, the “hERG current change (%, negative = inhibition) at 10uM” value falls from 9.88% to -13.5%.

First: C=C(C)C1(O)OC(=O)C=C1OC (centres unmarked)
Second: COc1cccc(C(=O)/C=C2\Sc3ccccc3N2C)c1
The “hERG current change (%, negative = inhibition) at 10uM” value of the first is lower: -0.917% for the first, 5.39% for the second.

First: CCOc1ccc(C(=O)N(C)C2CCS(=O)(=O)C2)cc1 (centres unmarked)
Second: CCOc1ccc(CNC(=O)c2ccc3c(c2)N(CC)CCS3)cc1
The “hERG current change (%, negative = inhibition) at 10uM” value of the first is higher: 18.3% for the first, 8.06% for the second.

First: CCCCn1nc2cc(C(=O)N[C@H](C)C3CCCCC3)ccc2c1OCC
Second: CCCCNC(=O)c1ccc2c(c1)ncn2C1CCCCC1
The “hERG current change (%, negative = inhibition) at 10uM” value of the first is higher: -14% for the first, -21.5% for the second.

Going from `Cc1ccc2c(c1)N=C(c1ccccc1)CC(C(Cl)Cl)=N2` to `Cc1cccc(N=C2NN=C(c3c(C)[nH]c4ccccc34)CS2)c1`, the “hERG current change (%, negative = inhibition) at 10uM” value falls from 21% to 15.9%.

First: CC(=O)c1ccc(OCc2cc(C(=O)N3CCC[C@H]3CO)no2)cc1
Second: CCn1c(SCC(=O)Nc2ccc(C(C)=O)cc2)nc2c([nH]c3ccccc32)c1=O
The “hERG current change (%, negative = inhibition) at 10uM” value of the first is lower: -4.61% for the first, 5.85% for the second.

First: COc1ccccc1Oc1ccc2c(c1)C(=O)N(CC(=O)O)C2=O
Second: O=C1c2ccccc2C(=O)N1CCc1ccccn1
The “hERG current change (%, negative = inhibition) at 10uM” value of the first is higher: 15.5% for the first, 14.9% for the second.

Going from `N/C(=N\OC(=O)c1ccc(F)cc1)c1ccccc1` to `O=C(COC(=O)c1ccccn1)Nc1cccc2ccccc12`, the “hERG current change (%, negative = inhibition) at 10uM” value rises from -1.82% to 16.4%.

Going from `CCN1C/C(=C/c2sccc2C)c2nc3ccccc3c(C(=O)O)c2C1.Cl` to `CCc1ccc2nc(N(CCN(C)C)C(=O)c3ccc4ccccc4c3)sc2c1.Cl`, the “hERG current change (%, negative = inhibition) at 10uM” value rises from -0.104% to 0.369%.

Going from `Cc1c(C=O)c2cc(OCc3ccccc3)ccc2n1C` to `Cc1ccccc1-n1c(-c2ccc3ccccc3n2)n[nH]c1=S`, the “hERG current change (%, negative = inhibition) at 10uM” value rises from 10.2% to 22.2%.

Compared with `CS(=O)(=O)Nc1ccccc1C(=O)Nc1ccccc1Cl`, `COC(=O)c1ccccc1NC(=O)CNc1cc(OC)c(OC)cc1C` is lower in “hERG current change (%, negative = inhibition) at 10uM” value: 2.26% for the first, -20.8% for the second.

First: CC(NC(=O)CC(O)(C(F)(F)F)C(F)(F)F)c1ccccc1 (centres unmarked)
Second: CCN(CC(=O)Nc1ccccc1C(F)(F)F)C(=O)CSCc1c(C)noc1C
The “hERG current change (%, negative = inhibition) at 10uM” value of the first is lower: -15.7% for the first, 0.201% for the second.

Compared with `CCCN(C(=O)c1cn(CC)c2nc(C)ccc2c1=O)c1c(N)n(Cc2ccccc2)c(=O)[nH]c1=O`, `Cc1cc(C)cc(C(=O)N(CCc2ccccc2)C2CC3CCC(C2)N3C)c1.Cl` (centres unmarked) is lower in “hERG current change (%, negative = inhibition) at 10uM” value: 17.8% for the first, -56.5% for the second.

Going from `CCN1C(=O)/C(=C/c2ccc(C)s2)SC1=Nc1ccc(OC)cc1` to `CCOc1ccc(-n2nc3ccc(N)cc3n2)cc1`, the “hERG current change (%, negative = inhibition) at 10uM” value rises from 4.64% to 16.1%.

Going from `O=S(=O)(c1ccc(Cl)cc1)N1CCC2(CC1)OCCO2` to `C=CCN1CC(C(=O)N2CCC(Cc3ccc(Cl)cc3)(C(=O)OCC)CC2)CC1=O` (centres unmarked), the “hERG current change (%, negative = inhibition) at 10uM” value falls from -7.7% to -72.4%.

Going from `Cl.OC(COc1ccc(Cl)cc1)CN1CCC(Cc2ccccc2)CC1` (centres unmarked) to `COc1ccc2cc(C3CC(c4ccco4)=NN3S(=O)(=O)c3ccccc3)c(Cl)nc2c1` (centres unmarked), the “hERG current change (%, negative = inhibition) at 10uM” value rises from -81.4% to 4.38%.

Going from `O=C(COC(=O)c1cccc(O)c1)Nc1ccc(OC(F)F)cc1` to `CC(C)NC(=O)CN1C(=O)c2cccc3cccc1c23`, the “hERG current change (%, negative = inhibition) at 10uM” value rises from -34.9% to 0.29%.

Compared with `Cc1ccc(C2C3=C(CC(C)(C)CC3=O)NC3=C2C(=O)CC(C)(C)C3)o1`, `Cc1ccc(C2=Nc3ccccc3NC(C)(c3ccc(C)o3)C2)o1` (centres unmarked) is lower in “hERG current change (%, negative = inhibition) at 10uM” value: -0.157% for the first, -2.12% for the second.

Going from `O=C(CN1C(=O)NC2(CCCC2)C1=O)N1CCN(S(=O)(=O)c2ccccc2Br)CC1` to `CN(C)S(=O)(=O)c1ccc(N2CCCC2)c(C(=O)NC2(C)CCS(=O)(=O)C2)c1` (centres unmarked), the “hERG current change (%, negative = inhibition) at 10uM” value rises from 0.884% to 9.41%.

First: Cc1ccc(F)cc1NC(=O)CCC(=O)c1cccs1
Second: NS(=O)(=O)c1ccc(CCNC(=O)CSc2ccc([N+](=O)[O-])cc2)cc1
The “hERG current change (%, negative = inhibition) at 10uM” value of the first is higher: 8.02% for the first, -37.8% for the second.

First: Cc1nnc(SCC2=C(C(=O)O)N3C(=O)C(NC(=O)Cn4nc(C(F)F)c(Cl)c4C)C3SC2)s1 (centres unmarked)
Second: CCNC(=S)NNC(=O)c1c(Cl)c(C)nn1C
The “hERG current change (%, negative = inhibition) at 10uM” value of the first is lower: 2.67% for the first, 17.1% for the second.

Compared with `CC(=Nc1ccccc1)C1=C(O)CCCC1=O`, `Oc1ccccc1-c1n[nH]c(=S)n1Cc1ccco1` is higher in “hERG current change (%, negative = inhibition) at 10uM” value: 6.23% for the first, 15.8% for the second.

Compared with `N=c1oc2ccccc2cc1-c1nc(-c2ccc(Cl)cc2)cs1`, `Clc1ccc(Nc2nc(C3CC3)cs2)cc1` is higher in “hERG current change (%, negative = inhibition) at 10uM” value: 10.1% for the first, 13.5% for the second.

Compared with `CCOC(=O)c1c(C2CCN(C(=O)OCC)CC2)nc2ccccn12`, `COc1ccc(-c2ccc(NS(=O)(=O)c3cc([N+](=O)[O-])c(C)c([N+](=O)[O-])c3)cc2)nn1` is higher in “hERG current change (%, negative = inhibition) at 10uM” value: -47.1% for the first, -11.3% for the second.

With `Cc1ccc(S(=O)(=O)Nc2ccc(N=Nc3ccc(O)cc3)cc2)cc1` the “hERG current change (%, negative = inhibition) at 10uM” value was 24.1%.
